In article PMC4336329 (PLoS ONE, 2015):
About 14,000 (4.5%) of roughly 310,000 compounds showed an effect of 50% or more. Effects have a minus sign here. The list shows a part of the results.

Each compound was assayed against human ether-à-go-go-related gene (hERG) potassium channel (human, UniProt Q12809) (assay: primary screen, population patch clamp on CHO cells stably expressing hERG).
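Also: peak tail current of the secondary pulse compared with the same well before compound.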

Chain of human ether-à-go-go-related gene (hERG) potassium channel (Q12809 whole entry, looked up): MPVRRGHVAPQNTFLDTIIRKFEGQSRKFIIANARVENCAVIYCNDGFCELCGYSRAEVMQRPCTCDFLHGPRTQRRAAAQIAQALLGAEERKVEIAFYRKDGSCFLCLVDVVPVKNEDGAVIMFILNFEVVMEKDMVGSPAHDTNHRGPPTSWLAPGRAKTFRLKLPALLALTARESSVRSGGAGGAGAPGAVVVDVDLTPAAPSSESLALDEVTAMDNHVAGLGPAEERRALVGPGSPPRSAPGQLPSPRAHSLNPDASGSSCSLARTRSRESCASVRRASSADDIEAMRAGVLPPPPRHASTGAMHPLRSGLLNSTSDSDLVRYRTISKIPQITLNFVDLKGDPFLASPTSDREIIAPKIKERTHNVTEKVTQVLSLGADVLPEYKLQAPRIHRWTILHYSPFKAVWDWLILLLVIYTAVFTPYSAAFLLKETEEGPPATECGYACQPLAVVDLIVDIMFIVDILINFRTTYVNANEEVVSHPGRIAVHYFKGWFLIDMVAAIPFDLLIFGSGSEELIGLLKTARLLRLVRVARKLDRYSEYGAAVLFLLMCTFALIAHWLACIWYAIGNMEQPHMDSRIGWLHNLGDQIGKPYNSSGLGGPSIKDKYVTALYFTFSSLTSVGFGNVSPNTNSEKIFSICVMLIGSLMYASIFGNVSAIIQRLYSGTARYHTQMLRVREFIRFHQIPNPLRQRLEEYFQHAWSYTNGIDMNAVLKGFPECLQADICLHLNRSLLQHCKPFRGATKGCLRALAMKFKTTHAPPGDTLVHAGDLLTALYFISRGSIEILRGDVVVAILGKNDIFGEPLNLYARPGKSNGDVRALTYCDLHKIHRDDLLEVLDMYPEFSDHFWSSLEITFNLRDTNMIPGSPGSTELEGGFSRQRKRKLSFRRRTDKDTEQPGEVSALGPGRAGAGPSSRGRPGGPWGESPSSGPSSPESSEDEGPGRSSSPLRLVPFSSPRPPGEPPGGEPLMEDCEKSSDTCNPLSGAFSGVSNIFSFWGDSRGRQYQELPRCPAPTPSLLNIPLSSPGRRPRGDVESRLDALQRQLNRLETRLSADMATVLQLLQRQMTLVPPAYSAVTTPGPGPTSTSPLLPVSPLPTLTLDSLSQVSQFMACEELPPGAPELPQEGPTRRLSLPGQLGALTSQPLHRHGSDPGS

Row | SMILES | hERG current change (%, negative = inhibition) at 10uM [%]
1 | Cn1c(-c2ccco2)n[nH]c1=S | 14.3
2 | CCn1nc(C)c(/C=N/NC(=O)c2ccoc2C)c1C | 14.5
3 | CC(OC(=O)CCCc1nc2ccccc2s1)C(=O)NC(N)=O (stereo not drawn) | 8.96
4 | CC1(C)CC2CC(C)(CN2C(=O)COC(=O)c2ccccc2C(F)(F)F)C1 (stereo not drawn) | -36
5 | O=S(=O)(N/N=C\c1cccc(F)c1)c1ccccc1 | -2.6
6 | CCC(NC(=O)C1CCC1)c1ccccc1 (stereo not drawn) | 12.6
7 | Cc1ccc(N=C2SCCCN2C(=O)c2ccco2)cc1Cl | 1.54
8 | CC1CCCCN1C(=O)CCNC(=O)Cn1cnc2ccccc2c1=O (stereo not drawn) | 17.3
9 | CC(C)(C)c1ccc(C(=O)N/N=C/c2ccccn2)cc1 | -5.6
10 | O=CN1CCCN(Cc2nc(Cc3ccccc3F)no2)CC1 | 16.1
11 | COc1cccc(OC)c1C(=O)NC(C)c1ccccc1 (stereo not drawn) | 10.7
12 | CCOCCCn1c(=NC(C)=O)c(C(=O)OCC)cc2c(=O)n3ccccc3nc21 | -22.9
13 | CSC1=NSC2=NC(=O)/C(=C/c3coc4ccc(O)cc4c3=O)C(=N)N12 | 4.29
14 | CCCCN1CC(O)=C(c2nc3ccccc3[nH]2)C1=N | 2.68
15 | CCOC(=O)c1cc2[nH]c3ccccc3c2[n+](-c2ccc([N+](=O)[O-])cc2)c1N.O=C([O-])C(F)(F)F | -58.4
16 | COc1ccccc1C(=O)Nc1nnc(S(=O)(=O)N(C)Cc2ccccc2)s1 | 3.88
17 | Cc1ccc2cc(C)c3nnc(SCC(=O)Nc4nc5c(s4)CCCC5)n3c2c1C | -53.8
18 | CCC(C)(C)NC(=O)C(c1ccccn1)N(C(=O)c1csnn1)C1CCCCC1 (stereo not drawn) | 6.56
19 | O=C(Nc1ccc(Cl)cc1)Nc1nnc(CSCc2ccc(Cl)cc2)s1 | 14.6
20 | O=C(CN1C(=O)c2ccccc2C1=O)Nc1ccccc1F | -6.46
21 | Cc1ccc(C(=O)N2CCN(Cc3ccc4c(c3)OCO4)CC2)c(Cl)c1 | -18.6
22 | COc1ccc(C2C(C(=O)c3ccco3)=C(O)C(=O)N2CC2CCCO2)cc1OC (stereo not drawn) | 24.1
23 | CCC(=O)Nc1ccc(C(=O)COC(=O)C(CCSC)NC(=O)COc2ccccc2)cc1 (stereo not drawn) | 5.53

Row | SMILES | hERG current change (%, negative = inhibition) at 10uM [%]
24 | COc1ccc(C(=O)Nc2ccc3ccccc3n2)c(OC)c1OC | 17.8
25 | CCCCN(CC)C(=S)Nc1ccc2nc(N3CCN(C)CC3)cc(C)c2c1 | -56.3
26 | COc1cccc(C2N(c3ccccc3)CCN2c2ccccc2)c1OC | 4.77
27 | Cc1cccc(C(=O)O/N=C(\N)c2ccccn2)c1 | 2.89
28 | Cc1[nH]n(-c2ccccc2)c(=O)c1C=NC1CCCCCC1 | -1.2
29 | C=CCn1c(Cc2cccc3ccccc23)n[nH]c1=S | 6.09
30 | O=C(CCS(=O)(=O)Cc1ccccc1)Nc1ncc([N+](=O)[O-])s1 | 10.8
31 | O=C1N=c2ccc([N+](=O)[O-])cc2=C1c1sc(=O)[nH]c1O | 14.6
32 | COCCc1nc2ccc(C(=O)NCc3cccc(-n4cccn4)c3)cc2o1 | 1.28
33 | Cc1cccnc1 | 17.7
34 | COc1cc2c(cc1OC)-c1cc(N3CCCCCC3)nc(=O)n1CC2 | 1.22
35 | CNc1ccc(NC(C)=O)cc1[N+](=O)[O-] | 1.68
36 | CC(C)C(NC(=O)Cc1ccccc1)C(=O)N1CCN(c2cccc(Cl)c2)CC1 (stereo not drawn) | -34.4
37 | COc1ccc(N2C(=O)CC(N(CCc3ccc(OC)c(OC)c3)C(=S)Nc3ccccc3)C2=O)cc1 (stereo not drawn) | -12
38 | CC(=O)c1ccc(OC(C)C)c(CSc2nc(O)cc(=O)[nH]2)c1 | 17.1
39 | CC(=O)c1cc2c(cc1NC(=O)c1cc(C)nn1-c1ccccc1)OCO2 | -17.2
40 | Cc1ccc(S(=O)(=O)O/N=C2/CCCc3occc32)cc1 | 9.47
41 | Cc1ccccc1CCNC(=O)Cn1nc(C)c2c(C)n(-c3ccccc3)nc2c1=O | -28.7
42 | COc1ccc(S(=O)(=O)N2CCOCC2)cc1NC(=O)COC(=O)C1CC2CCCC(C1)C2=O (stereo not drawn) | -24
43 | CCN(CC)CCO | 19.6
44 | O=C(OCc1ccccc1F)c1cc([N+](=O)[O-])ccc1N1CCOCC1 | -47.9
45 | CCOC(=O)[C@@H]1[C@H]2COc3ccc(Br)cc3[C@@H]2N2C(=O)N(c3ccc(F)cc3)C(=O)[C@]12C | -7.2
46 | CN1C(=O)c2cccc(NC(=O)Cc3ccccc3)c2C1=O | 10.5

Row | SMILES | hERG current change (%, negative = inhibition) at 10uM [%]
47 | CNC(=S)N1CCC(NC(=O)C(Cc2ccc(OC)cc2)NC(C)=O)CC1 (stereo not drawn) | 20.5
48 | O=C(COc1ccccc1)NC1CCCc2ccccc21 (stereo not drawn) | -19.3
49 | CN(C)S(=O)(=O)c1cc(NC(=O)CNCc2ccccc2)ccc1Cl | -10.2
50 | CCC(C)n1cnc2c(c1=O)c1nc3ccccc3nc1n2-c1ccc2c(c1)OCCO2 (stereo not drawn) | -13.3
51 | Cn1c(=O)[nH]c(=O)c2c1nc(N/N=C/c1ccncc1)n2Cc1ccc(Cl)cc1 | 15.1
52 | CC(=O)c1c(CC(=O)O)[nH]n(-c2nc3ccccc3s2)c1=O | 3.17
53 | COc1ccc(OCCNC(=O)c2ccccc2OCC(=O)N2CCCCC2)cc1 | -4.89
54 | CCSc1nnc(NS(=O)(=O)c2ccc(C)cc2)s1 | 10.6
55 | CCOc1ccc(C(C)=O)cc1N1C(=O)C2C3C=CC(O3)C2C1=O (stereo not drawn) | 10.6
56 | Cc1cc(NC(=O)CSc2nnnn2-c2cc(Cl)ccc2C)no1 | 16.3
57 | COc1cc(C(O)C(=O)O)ccc1O (stereo not drawn) | -0.629
58 | COc1ccc(Cl)cc1NC(=O)CSc1nnc(-c2ccco2)o1 | 7.36
59 | Cc1ccc2c(c1)c(N=Nc1ccc([N+](=O)[O-])cc1)c(O)n2C | 17.1
60 | CSc1ncc(Cl)c(C(=O)[O-])n1.[NH3+]CCc1ccccc1 | -2.11
61 | CCS(=O)c1scc(-c2ccc(Cl)cc2)c1C#N (stereo not drawn) | -37.8
62 | CC(=O)NC(C)c1ccc(Cl)c(Cl)c1 (stereo not drawn) | 13.1
63 | CC(NC(=O)CCC(=O)Nc1ccccc1O)c1ccccc1 (stereo not drawn) | 6.4
64 | Cc1ccc(S(=O)(=O)NCC(c2cccnc2)N2CCN(Cc3ccccc3)CC2)cc1 (stereo not drawn) | -73.1
65 | CS(=O)(=O)N(CC(=O)NCCSCc1ccco1)c1ccc(Cl)cc1 | 21.3
66 | CN(C)C(CNC(=O)c1oc2ccccc2c1CSc1ncn[nH]1)c1ccco1 (stereo not drawn) | -8.03
67 | CN1C2c3ccccc3C3C4c5ccccc5C(C31)C(C2[N+](=O)[O-])N4C (stereo not drawn) | 8.45
68 | COC(=O)c1cccc(NC(=O)c2onc3c2CCCC3)c1 | -5.47
69 | N#CC1=C2Nc3ccccc3N2C(=O)NC1(c1ccccc1)C(F)(F)F (stereo not drawn) | 13.9

Row | SMILES | hERG current change (%, negative = inhibition) at 10uM [%]
70 | CC(C)n1c(CN2CCN(Cc3ccccc3)CC2)nc2ccccc21 | -14.4
71 | CCCC(=O)NC(Nc1cc(C(F)(F)F)ccc1Cl)C(Cl)(Cl)Cl (stereo not drawn) | -5.74
72 | Cc1cccc2c1-c1sc(C(=O)N3CCCCC3)cc1CO2 | -18.6
73 | CC1CCCCC12NC(=O)N(CC(=O)Nc1cccc(S(=O)(=O)N3CCCCC3)c1)C2=O (stereo not drawn) | 2.19
74 | COCCOC(=O)C1=C(C)NC(=O)NC1c1cccc2ccccc12 (stereo not drawn) | 10.2
75 | COc1ccc(-c2n[nH]c(=S)n2-c2ccccc2C)cc1 | 23.1
76 | CCCn1c(SCC(=O)NCCc2ccc(OC)c(OC)c2)nc2c1c(=O)n(C)c(=O)n2C | 1.31
77 | CCSc1nnc(NC(=O)C2CCCCC2C(=O)OCC(F)(F)C(F)F)s1 (stereo not drawn) | 17.9
78 | Cc1ccc(NC(=O)C2(c3ccc([N+](=O)[O-])cc3)CCCC2)cc1 | -19.3
79 | Cc1ccccc1N1CCN(C(=O)C2CCC(=O)N(C3CCCC3)C2)CC1 (stereo not drawn) | -22.5
80 | CN(CC(=O)Nc1ccccc1Cl)C(=O)COC(=O)/C=C/c1ccc(C(F)(F)F)cc1 | 16.1
81 | CC(/C=C/c1ccc2c(c1)OCO2)=N\NC(=O)COc1ccccc1C | -9.8
82 | COc1ccc(OC)c(NC(=O)CSc2nnc(CNc3ccc(C)cc3C)o2)c1 | 11.2
83 | Cc1cc(C)nc(SCC(=O)Nc2ncc(Cc3cccc(Cl)c3Cl)s2)n1 | 6.66
84 | COc1ccc(OC)c(CCNC(=O)CCC(=O)N2CCOc3ccc(C)cc32)c1 | -28.3
85 | COC(=O)NNC(=O)COc1ccc2ccccc2c1Br | 4.56
86 | COc1ccc(C(=O)OCc2c(F)cccc2Cl)cc1S(=O)(=O)N1CCOCC1 | -21.8
87 | O=S(=O)(/N=C(/c1ccccc1)N1CCOCC1)c1ccc(Br)cc1 | -8.56
88 | CCC(=O)N1CCc2cc(S(=O)(=O)NCCC(=O)NC3CCCc4ccccc43)ccc21 (stereo not drawn) | 2.47
89 | C#CCSc1nc2sc3c(c2c(=O)n1C)CCC3 | 13.6
90 | CCSc1nnc(NC(NC(C)=O)(C(F)(F)F)C(F)(F)F)s1 | 28.1
